Consider ten compounds from PMC12155096 (International Journal of Molecular Sciences, 2025).

Data set [1] concerns the target Photinus pyralis (firefly) luciferase (Photinus pyralis, UniProt P08659). The class given is biochemical.
Data set [2] deals with T1, human CYP1A2 (Homo sapiens, UniProt P05177).
T1 sequence (P05177 1-516): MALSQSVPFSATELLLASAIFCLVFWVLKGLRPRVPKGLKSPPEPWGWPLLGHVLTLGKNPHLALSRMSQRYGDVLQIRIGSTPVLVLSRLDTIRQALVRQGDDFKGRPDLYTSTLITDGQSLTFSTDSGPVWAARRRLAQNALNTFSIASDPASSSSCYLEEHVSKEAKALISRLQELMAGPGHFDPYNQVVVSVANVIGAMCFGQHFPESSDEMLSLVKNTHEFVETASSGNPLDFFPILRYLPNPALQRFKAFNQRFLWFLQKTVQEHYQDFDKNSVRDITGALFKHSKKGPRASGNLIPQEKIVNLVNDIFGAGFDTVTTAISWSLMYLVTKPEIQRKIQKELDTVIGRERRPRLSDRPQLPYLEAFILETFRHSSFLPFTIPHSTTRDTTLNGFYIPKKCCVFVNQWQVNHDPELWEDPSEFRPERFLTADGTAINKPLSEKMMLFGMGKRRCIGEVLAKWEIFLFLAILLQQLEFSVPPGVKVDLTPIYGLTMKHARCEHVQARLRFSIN

The target in data set [3] is T2, human CYP2C9 (Homo sapiens, UniProt P11712). Kind of data set: biochemical.
T2 sequence (P11712 whole entry): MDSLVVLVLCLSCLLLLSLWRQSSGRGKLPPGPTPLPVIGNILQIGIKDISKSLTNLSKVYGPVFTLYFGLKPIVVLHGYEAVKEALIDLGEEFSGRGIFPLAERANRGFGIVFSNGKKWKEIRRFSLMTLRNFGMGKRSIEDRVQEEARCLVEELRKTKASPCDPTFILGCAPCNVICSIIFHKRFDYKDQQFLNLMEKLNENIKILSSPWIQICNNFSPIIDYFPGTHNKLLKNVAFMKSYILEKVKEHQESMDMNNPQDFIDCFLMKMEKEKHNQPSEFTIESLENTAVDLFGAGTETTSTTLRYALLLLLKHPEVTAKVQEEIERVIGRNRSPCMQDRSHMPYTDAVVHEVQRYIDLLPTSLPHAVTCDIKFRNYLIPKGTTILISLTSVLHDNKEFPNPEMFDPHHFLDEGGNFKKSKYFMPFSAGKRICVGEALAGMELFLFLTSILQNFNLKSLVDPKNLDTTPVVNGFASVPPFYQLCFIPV
Data set [4] addresses T3, human CYP2D6 (Homo sapiens, UniProt P10635). Kind of data set: biochemical. The settings on record: for IC50: CYP2D6 IC50.
Data set [5] has as its target T4, human CYP2C19 (Homo sapiens, UniProt P33261). Briefly: biochemical.
Data set [6] addresses T1, human CYP1A2. Kind of data set: biochemical.
The next data set has as its target CYP3A4 (Homo sapiens, UniProt P08684). Briefly: biochemical. The settings on record: CYP3A4 AC50 (half-maximal activity concentration).
Chain of UniProt P08684 (P08684 whole entry): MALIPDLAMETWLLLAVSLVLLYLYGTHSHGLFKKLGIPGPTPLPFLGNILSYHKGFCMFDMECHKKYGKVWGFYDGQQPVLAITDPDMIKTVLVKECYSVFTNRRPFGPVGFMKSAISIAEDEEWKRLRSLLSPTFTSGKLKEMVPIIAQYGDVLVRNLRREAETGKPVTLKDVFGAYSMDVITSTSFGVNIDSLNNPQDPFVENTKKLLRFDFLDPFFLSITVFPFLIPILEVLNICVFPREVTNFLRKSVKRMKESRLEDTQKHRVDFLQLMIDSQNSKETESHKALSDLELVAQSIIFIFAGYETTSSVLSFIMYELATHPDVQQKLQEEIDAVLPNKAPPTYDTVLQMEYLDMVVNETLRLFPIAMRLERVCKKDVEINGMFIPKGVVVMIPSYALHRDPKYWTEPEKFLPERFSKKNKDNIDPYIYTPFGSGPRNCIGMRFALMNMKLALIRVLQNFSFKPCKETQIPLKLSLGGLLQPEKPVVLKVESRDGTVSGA
The target of data set [7] is T2, human CYP2C9. The settings on record: for CYP2C9 Efficacy (in parenthesis): human.
Data set [8] concerns the target T4, human CYP2C19. The settings on record: for CYP2C19 Efficacy (in parenthesis): human.
The target of data set [9] is T3, human CYP2D6.
The mark [10] stands for this setting: CYP2C19 IC50 (half-maximal inhibitory concentration).
The mark [11] stands for this setting: CYP2C9 IC50 (half-maximal inhibitory concentration).

Where a name gives a salt, the structure may show the parent alone. Read-outs that look alike come from different tables or passages of the source.

As a reminder, the IC50 is the concentration that inhibits the measured activity by half. For orientation: AC50 means the midpoint of the concentration-response curve, whichever way the signal moves. A low value points to activity at low concentration.

T3 sequence (P10635 whole entry): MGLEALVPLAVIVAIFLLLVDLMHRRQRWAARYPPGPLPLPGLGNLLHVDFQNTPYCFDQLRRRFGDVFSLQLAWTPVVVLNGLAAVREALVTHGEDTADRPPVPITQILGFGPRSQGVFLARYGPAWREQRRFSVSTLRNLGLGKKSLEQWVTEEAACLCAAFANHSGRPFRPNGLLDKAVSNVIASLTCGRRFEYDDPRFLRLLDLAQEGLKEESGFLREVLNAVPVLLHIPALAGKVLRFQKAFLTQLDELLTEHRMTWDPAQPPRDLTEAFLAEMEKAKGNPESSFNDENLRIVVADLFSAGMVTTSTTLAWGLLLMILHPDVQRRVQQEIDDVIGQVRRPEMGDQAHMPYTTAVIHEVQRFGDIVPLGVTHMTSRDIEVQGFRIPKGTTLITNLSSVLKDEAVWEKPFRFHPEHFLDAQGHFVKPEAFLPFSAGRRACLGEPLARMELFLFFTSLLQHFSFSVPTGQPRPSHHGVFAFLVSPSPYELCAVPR
T4 sequence (P33261 whole entry): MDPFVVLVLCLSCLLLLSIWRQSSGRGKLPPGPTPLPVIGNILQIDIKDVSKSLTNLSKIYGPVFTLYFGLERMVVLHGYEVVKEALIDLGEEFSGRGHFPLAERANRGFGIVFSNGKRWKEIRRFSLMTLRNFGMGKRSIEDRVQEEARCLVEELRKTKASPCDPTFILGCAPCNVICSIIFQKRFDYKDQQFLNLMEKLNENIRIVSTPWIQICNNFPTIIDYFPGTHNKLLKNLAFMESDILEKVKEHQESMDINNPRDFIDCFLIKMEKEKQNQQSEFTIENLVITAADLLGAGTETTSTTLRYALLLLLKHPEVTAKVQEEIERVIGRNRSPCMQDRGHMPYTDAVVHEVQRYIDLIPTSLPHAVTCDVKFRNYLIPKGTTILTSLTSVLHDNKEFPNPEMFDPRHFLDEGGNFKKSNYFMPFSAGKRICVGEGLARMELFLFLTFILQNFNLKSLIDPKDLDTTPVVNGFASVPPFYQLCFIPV
Chain of Photinus pyralis (firefly) luciferase (P08659 whole entry): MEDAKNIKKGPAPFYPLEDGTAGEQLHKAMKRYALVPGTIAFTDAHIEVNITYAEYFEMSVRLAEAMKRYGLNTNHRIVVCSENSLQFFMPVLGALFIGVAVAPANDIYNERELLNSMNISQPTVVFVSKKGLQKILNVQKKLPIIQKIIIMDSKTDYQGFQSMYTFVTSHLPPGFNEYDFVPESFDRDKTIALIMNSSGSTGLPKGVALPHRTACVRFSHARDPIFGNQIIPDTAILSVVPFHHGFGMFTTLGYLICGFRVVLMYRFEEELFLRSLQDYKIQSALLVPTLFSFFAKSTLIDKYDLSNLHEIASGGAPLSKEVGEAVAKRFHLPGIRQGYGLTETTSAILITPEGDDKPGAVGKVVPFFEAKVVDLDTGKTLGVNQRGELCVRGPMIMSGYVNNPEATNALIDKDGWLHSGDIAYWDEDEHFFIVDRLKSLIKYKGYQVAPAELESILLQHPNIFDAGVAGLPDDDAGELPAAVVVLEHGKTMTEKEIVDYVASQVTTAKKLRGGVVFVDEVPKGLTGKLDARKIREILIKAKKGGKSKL

Turning to `CCN(CC)C(=O)N[C@H]1C=C2c3cccc4[nH]cc(c34)C[C@H]2N(C)C1` [(-)-(5S,8R)-Lisuride], in [1], the “Luciferase IC50” value was “Inactive”.

For `CCCCCCCCCCCCCCCC[n+]1ccccc1` [Cetylpyridinium bromide], the “Luciferase IC50” value in data set [1] was “Inactive”.

Turning to `CN1CCC[C@@H]1CCO[C@](C)(c1ccccc1)c1ccc(Cl)cc1` [Clemastine fumarate], the “CYP1A2 IC50” value at human CYP1A2 [2] was “Inactive”. Besides, the IC50 was determined as 22.5 µM at human CYP2C9 [3] (CYP2C9 IC50) and 3.25 µM against human CYP2D6 [4]. Further, the “Luciferase IC50” value in [1] was “Inactive”.

With `CCN(CC)CCOC(=O)C1(C2CCCCC2)CCCCC1` [Dicyclomine], the IC50 against human CYP2C19 [5] (CYP2C19 IC50) was 10.8 µM; on human CYP1A2 [6] (CYP1A2 IC50) it was 11.1 µM; against human CYP2C9 [3] (CYP2C9 IC50), 33.2 µM; on human CYP2D6 [4], 4.05 µM. Moreover, the “Luciferase IC50” value in data set [1] is given as “Inactive”.

For the compound `CN(C)CCOC(c1ccccc1)c1ccccc1.Cn1c(=O)c2[nH]c(Cl)nc2n(C)c1=O` [Dimenhydrinate], the “Luciferase IC50 (half-maximal inhibitory concentration)” value in [1] is “Inactive”.

As to `CC(C)(C)c1ccc(C(=O)CCCN2CCC(OC(c3ccccc3)c3ccccc3)CC2)cc1` [Ebastine], the AC50 at CYP3A4 was found to be 8.15 µM; at human CYP2C19 [5] (CYP2C19 AC50 (half-maximal activity concentration)), 20.6 µM; on human CYP2D6 [4] (CYP2D6 AC50 (half-maximal activity concentration)), 17 µM.

For the compound `CN(C)CCN(Cc1cccs1)c1ccccn1.CN(C)CCN(Cc1cccs1)c1ccccn1.O=C(O)/C=C/C(=O)O.O=C(O)/C=C/C(=O)O.O=C(O)/C=C/C(=O)O` [Methapyrilene fumarate], the IC50 against human CYP1A2 [2] came to 27.6 µM.

On to `Clc1ccc(CO/N=C(\Cn2ccnc2)c2ccc(Cl)cc2Cl)c(Cl)c1` [Oxiconazole nitrate], for which the IC50 was found to be 0.02 µM at human CYP2C19 [5] (setting [10]), 3.82 µM against human CYP1A2 [6] (CYP1A2 IC50 (half-maximal inhibitory concentration)) and 0.46 µM at human CYP2C9 [3] (setting [11]). In addition, at human CYP2C9 [7], the “CYP2C9 Efficacy (in parenthesis)” value is listed as 0.46 ± 0.06 (-94 ± 3) %. Besides, the “CYP1A2 Efficacy (in parenthesis)” value on human CYP1A2 [2] (human) is reported as 3.82 ± 0.48 (-94 ± 9) %. Moreover, at human CYP2C19 [8], the “CYP2C19 Efficacy (in parenthesis)” value is 0.02 ± 0.01 (-148 ± 6) %.

For the compound `CC(C)n1nc(-c2cc3cc(O)ccc3[nH]2)c2c(N)ncnc21` [PP242], at human CYP2C9 [7], the “CYP2C9 Efficacy” value is listed as 3.14 ± 0.72 (-109 ± 14) % and the IC50 amounted to 3.14 µM. The IC50 at human CYP1A2 [2] is 7.45 µM. For the same compound, at human CYP2D6 [9], the “CYP2D6 Efficacy” value is listed as 10.31 ± 17.83 (-9 ± 102) % and the IC50 worked out at 10.3 µM. At human CYP2C19 [8], the “CYP2C19 Efficacy” value was 0.56 ± 0.12 (-126 ± 11) % and the IC50 is 0.56 µM.

For the compound `Clc1ccc(CSC(Cn2ccnc2)c2ccc(Cl)cc2Cl)cc1` (stereo not drawn) [Sulconazole nitrate], the IC50 at human CYP2C19 [5] (setting [10]) worked out at 0.16 µM; at human CYP2C9 [3] (setting [11]), 0.47 µM. The “CYP2C9 Efficacy (in parenthesis)” value on human CYP2C9 [7] is given as 0.47 ± 0.07 (-107 ± 1) %. For the same compound, the “CYP2C19 Efficacy (in parenthesis)” value on human CYP2C19 [8] was 0.16 ± 0.07 (-121 ± 4) %.
